Results as given in patent US20190002429A1, “Derivatives of Xanthone Compounds” (Agency for Science, Technology and Research, priority 2011, published 2019).

System: Mycobacterium tuberculosis

COc1c(OCCCCBr)cc2oc3cc(OCCCCBr)c(CC=C(C)C)c(O)c3c(=O)c2c1CC=C(C)C [AM-005]
MIC100: NI (no activity at 250 nmol/mL)
